# Positions count from the first letter of the chain named. The list shows a part of the results.
# T1: UNK ZnF1-3 (human, UniProt Q9C0B0 31-174)
# T1 sequence: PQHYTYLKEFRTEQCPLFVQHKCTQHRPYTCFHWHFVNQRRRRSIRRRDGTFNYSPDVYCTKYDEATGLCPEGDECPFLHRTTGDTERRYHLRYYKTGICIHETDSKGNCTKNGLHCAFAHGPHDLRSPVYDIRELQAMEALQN
# B1: chr5:37680062:37680063:+_ENSMUSG00000029121_ENSMUST00000031004|mus_hu|mus_mus_mus_hu_False|78_78 (ssRNA)
# RNA: GGGAGUUCUACAGUCCGACGAUCUUUGGGUGUAGCUGGUACCUCGUACACAGGACCAUCGUACAUGCCCCUGGAAACCCCUUGCAAUCCAAAAACCUUAUUCCUGAUUUUGACGCGCUGGUACAGGUGCUCCGGGAACGCCUUCAACAGAGGAUUGAGCAUCA
# B2: chr18:59894552:59894553:+_ENSG00000134444_ENST00000256858|hu_hu|motif|central (ssRNA)
# RNA: GGGAGUUCUACAGUCCGACGAUCUUGAUGAUUUCCAAAAUCCCGGUAGAGUUGCAAUAAGUCUGGAGGUUUUGGAAUGUUUAAUCCGGCAUCAUCCCAUAAUUCAAAAUCCUGAUCAUCGUUUUCAUCUGAAAAGGUUAUUGACAACAGAGGAUUGAGCAUCA
# B3: chrX:71549762:71549763:+_ENSMUSG00000019087_ENSMUST00000019231|mus_mus|mus_mus_mus_hu_False|98_108 (ssRNA)
# RNA: GGGAGUUCUACAGUCCGACGAUCAAAGUGUACCACUCACUCUUAACAGCACAACAUCACCAGAAAACGAUAACGACAGCCAAGCAGGACAGACAGUUAAGUAGUACUUCCACACUCCCAAACUCAGGGAGCCCUAUAACCUUACAACAGAGGAUUGAGCAUCA
# B4: chr2:210598762:210598763:+_ENSG00000078018_ENST00000392194|hu_hu|FALSE|FALSE (ssRNA)
# RNA: GGGAGUUCUACAGUCCGACGAUCCAAAACAAUCACUAUACAGCAACAAAUACAUUUGCAAAUUUGAUUGAAAAACAUGAACUAACUACAACCAGCCAUUGAAGAAAUGCCUUUCUAUGGUAACAGGCUCUAGAAUUAUCAGAACAACAGAGGAUUGAGCAUCA
# B5: chr9:15127005:15127006:-_ENSMUSG00000046111_ENSMUST00000161132|mus_mus|motif|central (ssRNA)
# RNA: GGGAGUUCUACAGUCCGACGAUCCCAGAUUGGAAUAGGGCUCCGAAAUGGACAGGAUUUUAAUAUGUGCUCUGCUUGUGCGGGCUGACAUACAUUUCCUACAGCUUCUGUAGUGUCAGUUUCAAUGAAGUUCUGAAUUGGCUUCAACAGAGGAUUGAGCAUCA
# B6: chr4:25749455:25749456:-_ENSG00000091490_ENST00000264868|hu_hu|hu_hu_hu_mus_False|38_108 (ssRNA)
# RNA: GGGAGUUCUACAGUCCGACGAUCGCAAGCACUAGGAUAGAAAAAUCCACAGGGGGAAAAAAUGUAAACCAAUGUACAAUGUUAUCGCCUUCCCUGUAUUUCCAGGCUUUGUCUCAAGGCUCCUUCUAGCUGCUGGAUUUGGGACAACAGAGGAUUGAGCAUCA
# B7: chr2:73656703:73656704:-_ENSMUSG00000027104_ENSMUST00000100009|mus_mus|FALSE|FALSE (ssRNA)
# RNA: GGGAGUUCUACAGUCCGACGAUCAAGAAAUGGAAGUGGGAAGAGUGAUUCAGUAACACCCCCAUUUAUUAAGAUGCCACUAAAUCAAAGUGAAAUCAACCACAAUGAGUUAUGAUACAAUUUACACAUUGAGCACAGGAAAAUCAACAGAGGAUUGAGCAUCA
# B8: chr12:21796937:21796938:-_ENSG00000111716_ENST00000350669|hu_hu|FALSE|FALSE (ssRNA)
# RNA: GGGAGUUCUACAGUCCGACGAUCCACAAUUAUGAUGCAAUCAGGACUGUACUUGACGAUCUGAGGAAUAAUGAAUUUGAAGACAUUAACAUUUCUCUGCACCAGAUUGAGCCGACUCUCCCCUUCUUGCUGACGGACUCCUGCCAACAGAGGAUUGAGCAUCA
# B9: 107528239_107528359_927_CDS_ENSMUSG00000028613_ENSMUST00000106731|mouse|control|control (ssRNA)
# RNA: GGGAGUUCUACAGUCCGACGAUCAAGAGAGUACAGCGGCGGCGUCCAUCGGUUGUGGCCACUGAGAUGGUCUUAUUGCCUGAGUCUGUCCAGUAGAUGUGCUUAUGGACCCAGUCCACCGCCAGGCCCUCCGGGGAGUGCAGCCAACAGAGGAUUGAGCAUCA
# B10: chr18:3457883:3457884:+_ENSG00000177426_ENST00000400167|hu_hu|FALSE|FALSE (ssRNA)
# RNA: GGGAGUUCUACAGUCCGACGAUCGGGUUAAGCUGUAAGUUUUGCCUGAAGCUCCAUCUCUGCAGCCCGUUUGAGUGCAACAUCCACUAGAAGCUGAAAUCCACUGAAGUCCUGGUUGAGGUCCGGUGGAGUAGGGGGAGGAGUCAACAGAGGAUUGAGCAUCA
# B11: 83885755_83889540_1110_CDS_ENSG00000013375_ENST00000513973|human|control|control (ssRNA)
# RNA: GGGAGUUCUACAGUCCGACGAUCAGUCUUAGUGCAAUAGACAGGUACCUUCAUAACUUCUUCAAGAUACCGUGUUGAACUUCCAUUUGCAUAUGCAGUUUGUACAACACCAAUAUUCAAACUUUCUCCAAUCUCCACCAGGAGCAACAGAGGAUUGAGCAUCA
# B12: chr16:16330038:16330039:-_ENSMUSG00000022789_ENSMUST00000023477|mus_hu|FALSE|FALSE (ssRNA)
# RNA: GGGAGUUCUACAGUCCGACGAUCACUUUUAUCAUCCACGGGUUCACCGUAGCUAUUUAGAAGAGACUGAUACUGAGCAGCUAGAACAUUUAUUCUUGUUUUCAACUCUGGUAAACAAUCUCUGAUGUGAUGCAUCAGUAACCUCAACAGAGGAUUGAGCAUCA
# B13: chr5:71490574:71490575:+_ENSG00000131711_ENST00000296755|hu_hu|FALSE|FALSE (ssRNA)
# RNA: GGGAGUUCUACAGUCCGACGAUCUUUCUCCGCAGGGUUUGCUGGAUGCCACACAAUCAAAGAUGAGACUGAAGUUAAGUAGGAAAUCGGGAGAUCUACUUCUUGACCAUUAGGCAGAAUGAAUUCAGCCUUGUCUUUGUUGGUCAACAGAGGAUUGAGCAUCA
# B14: 118767367_118771021_1249_CDS_ENSG00000125354_ENST00000354416|human|control|control (ssRNA)
# RNA: GGGAGUUCUACAGUCCGACGAUCCUGGACGAACAUCUGUCUCAUCUCCUCUUCUUUUUUCUGGAGUUCCCCUAGGAACUCGUUCCUUUUGGCCUCAUAUGUCUCCUGUAAACUGAAGGGUUUGCUGUCAGGGUCGGUGUCCUUCAACAGAGGAUUGAGCAUCA
# B15: chr7:65705844:65705845:+_ENSG00000169902_ENST00000304842|hu_mus|hu_hu_hu_mus_False|58_68 (ssRNA)
# RNA: GGGAGUUCUACAGUCCGACGAUCAAACGGAUCUUUGUUACAUAAAUAAGGUGCCGGCUCCCCAUGUUUAACGAUAAUUUCUAGUAAGAAGGCUUGCAUGGCAGAAUCUAGCACUUCAUCUGUGACACCCGCCUCAUCCAAGCGCAACAGAGGAUUGAGCAUCA
# B16: 108159075_108159195_1344_CDS_ENSMUSG00000034610_ENSMUST00000043368|mouse|control|control (ssRNA)
# RNA: GGGAGUUCUACAGUCCGACGAUCUUCUAGACGUUCUUCUGCUUGUUUCAAGCCUAGCCUCUGCUCAGGUGUCAAAGCAGAUUCAUCUAUUACAGUGGCAUUUUCUAAAUAGUCCAUCUCAGAAGAAUUUUCUUUGUUAGAUUCCAACAGAGGAUUGAGCAUCA
# B17: chr3:9412954:9412955:+_ENSG00000134077_ENST00000452837|hu_mus|hu_hu_hu_mus_False|18_18 (ssRNA)
# RNA: GGGAGUUCUACAGUCCGACGAUCGGUUGAUAUCUCUUCUUUGAUGGCUGGAUUUUCAUAAUAGUCCAAGAUAUGUGAAUCUGAAGUGCUGCUGGCAUGCUUUUUCUUACCAUCUUUCUGAUCGAUUUUGUCUCCUUGUCCACACAACAGAGGAUUGAGCAUCA
# B18: chr13:45008927:45008928:-_ENSG00000102804_ENST00000261489|perfect_dup|FALSE|FALSE (ssRNA)
# RNA: GGGAGUUCUACAGUCCGACGAUCCGGACUGGCCAGCGUCUUCAGCAGAUUGUUCUCCUGCUCCAGCUGGGAGUUUUUCUCUAUUAGUUCUUUGAUCUGCUCCUUCAGAACUUCCACUUCCUCCCUCACCGCAUACAUCAAAUGCAACAGAGGAUUGAGCAUCA
# B19: 4396501_4396621_516_3pUTR_ENSMUSG00000054611_ENSMUST00000075856|mouse|control|control (ssRNA)
# RNA: GGGAGUUCUACAGUCCGACGAUCUCCGAGGCGUCAGGGAAGCAAGACCACUCGGCUACUCCCCCAAGCUGGCGGUCAGCAGCCCCAGCCCGAGACCCGGGUCAACCGGGCCGCGGGAAACACCCUCCUCUCGGUACCCUCAGCCAACAGAGGAUUGAGCAUCA
# B20: chr16:16330038:16330039:-_ENSMUSG00000022789_ENSMUST00000023477|mus_hu|motif|central (ssRNA)
# RNA: B12 RNA with U81G, A82G
# B21: chr17:65740002:65740003:+_ENSG00000130935_ENST00000581375|hu_hu|hu_hu_hu_mus_False|1_108 (ssRNA)
# RNA: GGGAGUUCUACAGUCCGACGAUCAACCCGUUCUUGCUCCCUGGACGAACAGGAAGAUUCAUAUUAAAAAAAAUAUAUAUCCAUCAAGUUAGGUGUGGUGGCCACACCUUUACUCCCAGCACUUUGGGAGGUGGAUCCUCUAUUCAACAGAGGAUUGAGCAUCA
# B22: 25441313_25442467_1572_CDS_ENSMUSG00000015087_ENSMUST00000058137|mouse|control|control (ssRNA)
# RNA: GGGAGUUCUACAGUCCGACGAUCUGCCACCAUUGGGUUCCCUCCUAGGGCCUCCCCAUCGUCACUGUCACUAUCCUGCUGGGGACCUUUGGCUCCAACUUUCUUGUCUUUAGGCACACUUGUGUCUUCCAGGAAGCUUCGGUCCAACAGAGGAUUGAGCAUCA
# Target: T1, UNK ZnF1-3
# Assay: nsRBNS (natural sequence RNA bind-n-seq); RBNS binding buffer (assumed for nsRBNS): 25 mM Tris pH 7.5, 150 mM KCl, 3 mM MgCl2, 0.01% Triton X-100, 500 ug/ml BSA, 20 U/ml SUPERase-In, 4 C; UNK is unkempt and MSI1 is Musashi-1; names of the RNAs are library labels; protein concentration not given here; high values mean tight binding
row,Binder,binding signal [enrichment R]
1,B1,0.683
2,B2,0.569
3,B3,1.67
4,B4,1.1
5,B5,0.651
6,B6,1.45
7,B7,1.29
8,B8,1.6
9,B9,0.618
10,B10,1.21
11,B11,0.816
12,B12,0.845
13,B13,1.14
14,B14,0.593
15,B15,0.598
16,B16,0.282
17,B17,0.416
18,B18,1.03
19,B19,0.741
20,B20,0.865
21,B21,0.96
22,B22,0.658

# — PMC12136788
